This is an account of results in article PMC12136788.

The other results are listed elsewhere or left out.

T1: UNK ZnF1-3 (human, UniProt Q9C0B0 31-174)
T1 sequence: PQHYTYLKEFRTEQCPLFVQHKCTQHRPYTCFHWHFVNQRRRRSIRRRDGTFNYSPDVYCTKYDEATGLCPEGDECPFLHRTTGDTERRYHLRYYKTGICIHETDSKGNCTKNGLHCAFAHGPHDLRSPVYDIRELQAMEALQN

B1: chr4:96106342:96106343:-_ENSG00000182168_ENST00000453304|hu_hu|FALSE|FALSE (ssRNA)
RNA: GGGAGUUCUACAGUCCGACGAUCAAGAGCCUUAGGUUCUUCUAGGAGCUGUCCUCCCAUCUGUCUCUCAAGAUGUAAAAUUUCCUUCAGGGCAUCCUGGGUGUCAUCCAGACAGUAGACUCGGAUGCUGUACUCCAGCGAGGACAACAGAGGAUUGAGCAUCA
B2: chr3:8560387:8560388:+_ENSMUSG00000027500_ENSMUST00000029002|perfect_dup|motif|central (ssRNA)
RNA: GGGAGUUCUACAGUCCGACGAUCCAUACACUUCCCAUACUGAUAUCGCAUGAUCCAUUAUAAUAUAGGCAGGGGGAUUUACGGUGGGAGGGGCUUGCCAUACCCGCCAUUGCUUCAGCCAGACAGUUCAACCUGCAGUUCCUUCAACAGAGGAUUGAGCAUCA
B3: chr7:135612270:135612271:-_ENSG00000105887_ENST00000393085|hu_mus|hu_hu_hu_mus_False|78_88 (ssRNA)
RNA: GGGAGUUCUACAGUCCGACGAUCGUUUUUUUCUGAGAUGUUAAAUAUUCAGUGGAGAACAAAACUUACUUAACCUUUUAUUAAUGCGUGUUGUACCAAAAGCAGACAUUUUAGCUUCAUUUAUUCAAAAAUAUUAACAUUAAGCAACAGAGGAUUGAGCAUCA
B4: chr11:68312385:68312386:+_ENSG00000110075_ENST00000393800|hu_mus|motif|central (ssRNA)
RNA: GGGAGUUCUACAGUCCGACGAUCCUUGCUGAAGAAACUGGCGAGUAGUGGGUUCAAGGGGGACUCAUUUAGGAGGAAGCGGUACAAUUUCAUUAGCAAGGACUCAUCUUCCCCCAGUCUAUCAUUCAUCUGGGAGACAUCAGACAACAGAGGAUUGAGCAUCA
B5: chr11:77336104:77336105:-_ENSG00000074201_ENST00000525064|hu_mus|hu_hu_hu_mus_False|1_48 (ssRNA)
RNA: GGGAGUUCUACAGUCCGACGAUCCUCACACAUUGCUGUGAACAUCGCCUCCAAUGCUGACUUAUCACUGGGCACAAAUCGAAAUUCAGUAAUAGGUUCAACAUCAUCAUUGUCUUCCUCAUCUUCAUCAGAGAGAGCAGGUUCCAACAGAGGAUUGAGCAUCA
B6: chr12:25358290:25358291:-_ENSG00000133703_ENST00000311936|hu_hu|motif|central (ssRNA)
RNA: GGGAGUUCUACAGUCCGACGAUCGUACAGUUCAUGACAAAAAUAUUACAAAUUUUAGAUCACUUCACAGCACAUACUCCGGUAAACAUUUAAAAGUUAAUUUCAAUUAAAAGAGUGGUCAUUUUUAAUGUUUGAUAUGACCAACAACAGAGGAUUGAGCAUCA
B7: chr1:167535829:167535830:-_ENSMUSG00000026566_ENSMUST00000068705|mus_hu|FALSE|FALSE (ssRNA)
RNA: GGGAGUUCUACAGUCCGACGAUCAGGAGGGUUUUUGACAUCACAGAUAUAGGUGCCAUUGUGUAUAAACUGCAUAUUUUCUAUGUUGAUUGAUGCAUCUUUCUUGUCAAGGUCUCCAGCCCAGCUGAUUCUGUCUUUAAAUGGCAACAGAGGAUUGAGCAUCA
B8: chr16:94651144:94651145:+_ENSMUSG00000040785_ENSMUST00000117648|mus_hu|mus_mus_mus_hu_True|28_68 (ssRNA)
RNA: GGGAGUUCUACAGUCCGACGAUCAUUUUCUUGAAUCAAGUGGCGAAUAACAUAGUCCACUGCUUCAUGGACAAAAUUUCUGCUAGAAAAACAGGUUGUAUAGUCUUCCGUGCUCAGAACUUUCCAAGAAAGCAAUUCUUUGAGCAACAGAGGAUUGAGCAUCA
B9: chr9:66219764:66219765:+_ENSMUSG00000038664_ENSMUST00000042824|mus_mus|FALSE|FALSE (ssRNA)
RNA: GGGAGUUCUACAGUCCGACGAUCUUCAAAAUCAGGCAACUGUGGUCCUUUGAGGCAUAAAACCUGUUGAGGCAAAGGUACUACUUCCUUAUUGCUGAUCAGUUUAGAAUACAAAACGGUAACUCCCUCUCUUGUAGCAAUAGACAACAGAGGAUUGAGCAUCA
B10: chr11:121174221:121174222:+_ENSG00000109929_ENST00000392789|hu_mus|motif|central (ssRNA)
RNA: GGGAGUUCUACAGUCCGACGAUCGGUUGCACAGAAGAAGUAGAGAAUGUAAGCACCCAGGUUUGUGACAAUCAGGAGGCGGAUAGUUUGUCGGAUGAUGUUGUCCUCGGGCCACGUGGCUGGAUAUACAUACGGAGUGAAGAACAACAGAGGAUUGAGCAUCA
B11: chr12:3264740:3264741:-_ENSMUSG00000020671_ENSMUST00000021001|mus_hu|FALSE|FALSE (ssRNA)
RNA: GGGAGUUCUACAGUCCGACGAUCCCAUAUCUGUAGCUUGAUCUUCUUUCCUUGUAAUUCAACUGUUUUGAUCUUGAAGUCUAUUCCUAUGGUGGAAAUAAAGGUAGUAUUGAAGGCAUCAUCCGAAAAACGAAAAAGGACGCACAACAGAGGAUUGAGCAUCA
B12: chr2:37458628:37458629:-_ENSMUSG00000026915_ENSMUST00000072186|mus_mus|FALSE|FALSE (ssRNA)
RNA: GGGAGUUCUACAGUCCGACGAUCCUUAUACUGAAGCCCGGGCCUGAUCUGAUUUAAUCUCAUUAGUGCAUUCAUAAGGUCUAUUGCUUUACUAUCUAGAAUUUUCCUUAAGUUUCGUUUCAUCUUCUUGUUGGGAUCUUUAUCCAACAGAGGAUUGAGCAUCA
B13: 29977199_29977319_67_3pUTR_ENSG00000184117_ENST00000216121|human|control|control (ssRNA)
RNA: GGGAGUUCUACAGUCCGACGAUCGGGCGUCUCCAACUCCGCAGGUGCUGGACGGAAGUCAGGGUUCUAAUCCUCUGCGCGCUCUGCGACCUUGGCAAGCCCUUUGCCCACUCUGGGCCUCAGGAUCCACCUCGGUAAAAUGGGCAACAGAGGAUUGAGCAUCA
B14: 118366522_118367487_508_CDS_ENSMUSG00000030138_ENSMUST00000032237|mouse|control|control (ssRNA)
RNA: GGGAGUUCUACAGUCCGACGAUCACACCCACACUCAAUAAUUGUAAGUCUGCGCUUUUUACCUGACACAAUUGUCACAGGGCCUCUGAUCUCACUCAAUUUCUGUCUGGUAAAAUUCCGAAUCAGGCAUCGUAUCAAAGUGCUCAACAGAGGAUUGAGCAUCA
B15: chr8:35894304:35894305:-_ENSMUSG00000031529_ENSMUST00000033929|mus_mus|FALSE|FALSE (ssRNA)
RNA: GGGAGUUCUACAGUCCGACGAUCUUUUCAAAGUAACAACGACAACAAGAAGCAUCAACAAAUAUGCUUGGCAAAAUUAAAAAAUGAGCACACCACAUGUGUCUGUUAUUCAUGUGCCAAACAUAACCAAGAAAAUGUAGUGUACAACAGAGGAUUGAGCAUCA
B16: chr7:56126124:56126125:+_ENSG00000146731_ENST00000540286|hu_hu|motif|central (ssRNA)
RNA: GGGAGUUCUACAGUCCGACGAUCUUGAUUAAUAACAACAAAUCCUUUAUCUGAAUCGCCACAGACUUUCCUUUUCAGUUCGGUUAUUUUUUUAACCCUAUCUUCAAUGAAUUUUCUUUCAGCUUUCACGAGUUUUUCUCUCUCCAACAGAGGAUUGAGCAUCA
B17: chr4:107938938:107938939:-_ENSMUSG00000034636_ENSMUST00000043616|mus_mus|FALSE|FALSE (ssRNA)
RNA: GGGAGUUCUACAGUCCGACGAUCCCGGCUGAAGCACCGCUCAUAUGGAUCCUCGAGGGACAGAGUUAAUGAGUUUAGUACUAAGCACUGAAGAUUUUGCUGGAUCCACUUGUUACUGCCAAGGCCACUUAUGAUGUCUGUGAUCAACAGAGGAUUGAGCAUCA
B18: 91606604_91606724_216_5pUTR_ENSMUSG00000040506_ENSMUST00000045705|mouse|control|control (ssRNA)
RNA: GGGAGUUCUACAGUCCGACGAUCAUGGUGCUCAGGAGCCACUGUCGCACCAGGGAUCAGAACUGAAGGAGCAAGCAAUAGCUCCACACACAGAAAUAGCUAAAAUGAGGCCAUUCAGGUCCUUGUCAGCUGUCCUCAUGGAAACAACAGAGGAUUGAGCAUCA
B19: chr9:71842732:71842733:+_ENSG00000119139_ENST00000377245|hu_hu|FALSE|FALSE (ssRNA)
RNA: GGGAGUUCUACAGUCCGACGAUCAUCAUAAUCAGAAUACUGAUGACGUCUCUCCUCUGGAGAAAAUGAUCGGUUUGACUCUAUUUCUGAAAUAUCUUCUAUUUCUGAGUCACUGUCAUUUAAUGACGGGAUGUUGAUGAGGGUCAACAGAGGAUUGAGCAUCA
B20: 106622725_106625096_637_CDS_ENSMUSG00000040661_ENSMUST00000046502|mouse|control|control (ssRNA)
RNA: GGGAGUUCUACAGUCCGACGAUCUCUUCUUUCCAAUUCUUCCUGCUGUGCUGCUUUGGUUACGGGCUCCAACUGAUCCUCCCGGAGUAGCUUUCGUAUGUUUCUUCUCAUGUGAGAGGGCUUCUGAGCUCGCUUCUUUUUGGGCAACAGAGGAUUGAGCAUCA
B21: chr19:16212804:16212805:+_ENSG00000167460_ENST00000300933|hu_mus|hu_hu_hu_mus_False|48_88 (ssRNA)
RNA: GGGAGUUCUACAGUCCGACGAUCAACAAUUCUGGAGUGAAGGAAAGCAUCAAGGAUGAACAGCAUUAAAGCUCAGUCAGAAGGCACGUGGGUAAUUAUGAUCACCCCAGCAUUCUCGCUUGGAAUGCUUAAAGACAAUCUGUUCAACAGAGGAUUGAGCAUCA
B22: chr19:29884105:29884106:-_ENSMUSG00000074909_ENSMUST00000099525|mus_mus|FALSE|FALSE (ssRNA)
RNA: GGGAGUUCUACAGUCCGACGAUCCAGAGAGAAAUGGUAUAUCUCUCAUUUGUAAUGAAUCCACUCACGACACGUUGUAGCUACUUUUAUGAUAGAUGGUAUUAAACUGCUUCAAGCAAAACUGAGUAACUCAUGUAAAGCUUCCAACAGAGGAUUGAGCAUCA

The assay addresses T1, UNK ZnF1-3. The assay is described as follows: nsRBNS (natural sequence RNA bind-n-seq); RBNS binding buffer (assumed for nsRBNS): 25 mM Tris pH 7.5, 150 mM KCl, 3 mM MgCl2, 0.01% Triton X-100, 500 ug/ml BSA, 20 U/ml SUPERase-In, 4 C; UNK is unkempt and MSI1 is Musashi-1; names of the RNAs are library labels; protein concentration not given here; high values mean tight binding.
B1 displayed a binding signal of 0.522 enrichment R.
B2 registered a binding signal of 1.28 enrichment R.
Molecule B3 came in with a binding signal of 1.17 enrichment R.
The same measure for B4: 1.19 enrichment R; for B5: 0.881 enrichment R.
For B6, the binding signal was found to be 1.65 enrichment R.
B7 yielded a binding signal of 0.576 enrichment R.
B8 showed a binding signal of 0.626 enrichment R.
The same measure for B9: 1.17 enrichment R; for B10: 2.31 enrichment R; for B11: 1.17 enrichment R.
In the case of B12, the binding signal is 0.526 enrichment R.
In turn, B13 had a binding signal of 0.805 enrichment R.
As for B14, the binding signal was 0.917 enrichment R.
In the case of B15, the binding signal is 1.39 enrichment R.
In the case of B16, the binding signal came to 0.291 enrichment R.
With B17, the binding signal came out at 1.18 enrichment R.
Molecule B18 came in with a binding signal of 0.924 enrichment R.
On to B19, for which the binding signal was determined as 0.672 enrichment R.
B20 yielded a binding signal of 0.266 enrichment R.
Turning to B21, the binding signal came to 1.38 enrichment R.
As for B22, the binding signal is 0.805 enrichment R.
